In the supplement of paper PMC11417369:
The list shows a part of the results.

What follows are sequences tested on PF3D7_0420300 AP2 domain 1 (GST-tagged) (assay: gcPBM binding intensity (ln(normalized median fluorescence intensity)); higher = stronger DNA binding).
Method in brief: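 Using an Agilent 4 × 180k array, primer-extended double-stranded 36-bp intergenic genomic probes and negative controls were exposed for 1 h to GST-fused P. falciparum DNA-binding domains expressed in E. coli. Binding was carried out in 1× PBS with 1% milk, 0.2 mg/ml BSA, 0.5% salmon testes DNA and 0.03% Triton X-100, and protein was detected with Alexa488 anti-GST antibody and a 488 nm scan. Binding intensity is the highest Masliner-normalised natural-log median intensity across replicate spots of either probe orientation.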

“AGGCACACAAACATATGTACACATATATATATATAT [XGTACX_site4723]” and “TTTATTGAACGTACACATATATATATGTATATATTT [TGCATGCA_negctrl_site141]” are the same in “gcPBM binding intensity (ln)” value: 9.42 for the first, 9.42 for the second.

Going from “TTATTTTTTTTATATATATGTATAAATATATATATA [XGTACX_negctrl_site441]” to “AAAATTTTTAAATATTGTACTATTTATTTTTAGCAT [XGTACX_site6190]”, the “gcPBM binding intensity (ln)” value falls from 9.18 to 9.12.

Going from “TATATATATATATTTACACACATTCATATAAATTCA [CACACA_site3532]” to “AATATGAACGGACACACACACACAAAAAAAAAAAAA [CACACA_site5154]”, the “gcPBM binding intensity (ln)” value rises from 9.32 to 10.1.

Going from “GCCTACAGACTTAGTAGTACATGAGAAGATATATAT [XGTACX_site2269]” to “TATATTTATTTATATACACACACTTGTATAAAAAAT [CACACA_site2036]”, the “gcPBM binding intensity (ln)” value rises from 9.06 to 9.4.

Going from “TATATACAGAAACACACACACACATATATATATATA [CACACA_site2247]” to “TATATCAAAATACATACACACATTTGTATATACATT [CACACA_site2696]”, the “gcPBM binding intensity (ln)” value falls from 10.1 to 9.64.

Going from “TTAAATATTTTTAGAGTGCATGTAATAAAAATATAA [GTGCAC_site9414]” to “TATCTATATGGGAACACACTCATAAATATATATCTA [CACACA_site4815]”, the “gcPBM binding intensity (ln)” value rises from 9.08 to 9.3.

Going from “AAAATAAATAAATACACACACACGAATATATATATA [CACACA_site1683]” to “TTTTAAAAATAATAAATAAATAAAATTGAAGTTCCA [CACACA_negctrl_site305]”, the “gcPBM binding intensity (ln)” value falls from 10.2 to 8.83.

First: TTTTTTTTGTTGTTGTTGCACTTGATAGGAATGGCT [GTGCAC_site9701]
Second: AAAAAAAACAGACACACACACAAATACATACACAAA [CACACA_site705]
The “gcPBM binding intensity (ln)” value of the first is lower: 9.18 for the first, 10 for the second.

First: CCATTTACAAAAAGGAGTACACAAATATATGTTTAA [XGTACX_site649]
Second: TACTTACAGATAATAACACACAAGAAAAAAATAAAA [CACACA_site4716]
The “gcPBM binding intensity (ln)” value of the first is lower: 9.12 for the first, 9.8 for the second.

Going from “ATATAAATGTATATGACACACATATATATATATATA [CACACA_site889]” to “TACAAATATGGACACACACACATATTTATATTTATA [CACACA_site6420]”, the “gcPBM binding intensity (ln)” value rises from 9.22 to 10.

Going from “AAAAAACAGACATACACACACACACGGATATTTATA [CACACA_site7570]” to “AATATTTATGGGTGCACACAAACATACAGATATATA [CACACA_site5810]”, the “gcPBM binding intensity (ln)” value falls from 10.3 to 9.6.

Going from “TATATATATATCAAGTGTACTTGTGTTTGTAATATT [XGTACX_site8854]” to “TATTATTTTTCCTAATGTACAAAATATATATTTTTA [XGTACX_site2727]”, the “gcPBM binding intensity (ln)” value falls from 9.41 to 9.

First: TTTGAATATATAAATATGCACACTTCTATTATAAAT [CACACA_site3359]
Second: TTCTTATATAAATACACACACAAAATATCTACAATG [CACACA_site4568]
The “gcPBM binding intensity (ln)” value of the first is lower: 9.18 for the first, 9.9 for the second.

First: AATCGATTGGATAATATTTTTTCTCTTAATTTTTTG [GTGCAC_negctrl_site165]
Second: AAAAAAATAAAAAGGAACGTCTATAGTTAATTTATT [CACACA_negctrl_site919]
The “gcPBM binding intensity (ln)” value of the first is lower: 9.08 for the first, 9.38 for the second.

First: ATGTTGCACAATGTTACACACACAATATATATCGTT [CACACA_site4833]
Second: TATATTAGAAGAAATTCACACATTCATGTAATCTTA [CACACA_site4706]
The “gcPBM binding intensity (ln)” value of the first is higher: 10 for the first, 9 for the second.

Compared with “TAACATATTATATATACATGCATACGTGAACTAATC [TGCATGCA_site888]”, “GATATATTATTTGAATGTACATATTATATTTATATT [XGTACX_site907]” is lower in “gcPBM binding intensity (ln)” value: 9.32 for the first, 9.26 for the second.

First: ATTGTATATGTATATGCACACAATATATGTACTTAT [CACACA_site2611]
Second: TTTTTTTAGTTAATTAAACACACAAAAAAAAAAATA [CACACA_site9301]
The “gcPBM binding intensity (ln)” value of the first is higher: 9.51 for the first, 9.05 for the second.

Compared with “GTTAGAATTGTTAGGTGGTCAAAAAGGAGAAAAAAA [XGTACX_site2086]”, “AAAAGAAAATTAAATTAACACACATAAATATATATA [CACACA_site8482]” is higher in “gcPBM binding intensity (ln)” value: 9.17 for the first, 9.52 for the second.

First: TTCACATACAGAAACACACACATATTTATAAATTAA [CACACA_site7699]
Second: TTTTTAATTAACTTTTTATAAATAAATAAAAATATA [GTGCAC_negctrl_site334]
The “gcPBM binding intensity (ln)” value of the first is higher: 9.69 for the first, 8.55 for the second.

Going from “ATTATTTAATTTTATTAAAAAAAAACAAATTAACAG [GTGCAC_negctrl_site152]” to TTAAAATAGATATTAGTGCAAAAAAAAAAAAATAAA, the “gcPBM binding intensity (ln)” value rises from 8.93 to 9.26.

Going from “TTTTGATATAAATATTAGATTAATAAATAAAAAAAT [CACACA_negctrl_site1635]” to TTTTTTGTTTGAATGGTGCATTTTGTAATTATATTT, the “gcPBM binding intensity (ln)” value rises from 8.99 to 9.5.

Going from “ATAATATCATAATATTGTACATATTTTATTTTAAAT [XGTACX_site1115]” to “CAACTAACATATATTCAACACACATATACCTTCAAC [CACACA_site8988]”, the “gcPBM binding intensity (ln)” value rises from 9.06 to 9.66.

Going from “GGTCTTATTTTTAGTAGTACAAATATAATATACATA [XGTACX_site6483]” to “TTTTTTTTTTTTTGTTGTACCCATCATATATACATA [XGTACX_site4342]”, the “gcPBM binding intensity (ln)” value rises from 9.3 to 9.36.

Going from “TATAAAAATATTTAATGTACGAATCTGTGATATATC [XGTACX_site7881]” to ATATATTACATATGTGTGCACGTTCCAAAATTTTTA, the “gcPBM binding intensity (ln)” value rises from 9.2 to 9.59.

Going from “CTAAACAGAATTATCACACATATAAATATAAACATA [CACACA_site4560]” to “AAAATACACGCATACACACACACACGCGCACATATA [CACACA_site6448]”, the “gcPBM binding intensity (ln)” value rises from 9.48 to 10.3.

Going from “ATTATTAAAAGAAGAAGTACTTATATATTAATATTA [XGTACX_site5227]” to “TTTTCATGTTGTAAAGCATGCTTTACTCATAAAAAA [TGCATGCA_site917]”, the “gcPBM binding intensity (ln)” value falls from 9.02 to 8.75.

Compared with “AAATAATATTTATACACACACACATATTTATATACA [CACACA_site6403]”, “TTATTTTATTTTGAAGCATGCTTTTTGCTGTGATAA [TGCATGCA_site278]” is lower in “gcPBM binding intensity (ln)” value: 10.1 for the first, 8.8 for the second.

Going from “TTATGCGTTTGCAAAAGTACATATCTATTATTTTTA [XGTACX_site7609]” to “AAAATATACATAAACACACACAAAACGTTTAAGAAA [CACACA_site1071]”, the “gcPBM binding intensity (ln)” value rises from 9.07 to 9.91.

First: ATATTAATTTTTATTACACACTCTCAATTTTTATTT [CACACA_site58]
Second: GTTTAACTGTTTTATACACACAATGTATCCAATAAA [CACACA_site5612]
The “gcPBM binding intensity (ln)” value of the first is higher: 9.5 for the first, 9.49 for the second.

Compared with “TTTTAGTTAATTCATGCATGTAAAGTTTTATTTATA [TGCATGCA_site252]”, “AAAAAAAAAAAAAAAGTACACACTTTTGCGTACATG [CACACA_site3097]” is higher in “gcPBM binding intensity (ln)” value: 9.15 for the first, 9.22 for the second.

Going from “ATGTCTATATATTAAGGTACACATATATGCTATTCA [XGTACX_site6008]” to “TATATATTAAAAATAGTGCAAAATAATATATATATA [GTGCAC_site9716]”, the “gcPBM binding intensity (ln)” value rises from 9.35 to 9.44.

Compared with “AATACCTTTTAATAATGTACAAACAAAAATTAGAGA [XGTACX_site6850]”, “AAGGGGAGAAAAATAAACGAAATATATACATACATA [XGTACX_negctrl_site88]” is higher in “gcPBM binding intensity (ln)” value: 9.31 for the first, 9.42 for the second.

Going from “ATATATATATATATATGTACATATTCATCTTATTCT [XGTACX_site1537]” to “ACAAATAAATATATATGTACATATATTTTTTTATTT [XGTACX_site2989]”, the “gcPBM binding intensity (ln)” value falls from 9.44 to 9.13.

Compared with “TTTTATTTATATTATACACACAAGGAAAAAAAAAAA [CACACA_site7690]”, “TTTATGCACGCGTGCACACACATATGAAAAAAGGTA [CACACA_site3315]” is higher in “gcPBM binding intensity (ln)” value: 9.32 for the first, 9.74 for the second.

Going from “TATGTTTAAATATATTGTACGCACGTATGTTTTTAA [XGTACX_site1108]” to “TTTTATTATTTATATACACACTTGCTGAAATGTTAT [CACACA_site5919]”, the “gcPBM binding intensity (ln)” value rises from 9.19 to 9.46.

First: TATATACAAATATGCTGTACAAAAAAAAAAAAAAAA [XGTACX_site4732]
Second: TATAATAATAATGATAGTACGTATGAGTTCAAAAAA [XGTACX_site608]
The “gcPBM binding intensity (ln)” value of the first is lower: 8.85 for the first, 9.43 for the second.

First: CGGTATTTTTTAATTTGTACGCATATACAATAATTA [XGTACX_site8603]
Second: TTTTTTATTTTAATGTATTATTTTTATGTAATATAT [GTGCAC_negctrl_site391]
The “gcPBM binding intensity (ln)” value of the first is lower: 9.18 for the first, 9.23 for the second.

First: GATATGATTACCTTATGGTGTTTTTGATGGATAGTT [CACACA_negctrl_site1504]
Second: TTATGGAACCCCATTCGTACATAAATATTTTATATA [XGTACX_site7112]
The “gcPBM binding intensity (ln)” value of the first is higher: 9.4 for the first, 9.08 for the second.

Going from “GTATAATATGAACACACACACACACCCAAAAAAAAA [CACACA_site5152]” to “ATACATATTAACAAGGTGCAAATGGATTTCATAAAA [GTGCAC_site9775]”, the “gcPBM binding intensity (ln)” value falls from 10.2 to 9.39.

Going from TTTTTTTTTTTGTGAGTGCACGTATGAAGAGAAAAA to “TATTTATATTTATATACACACTATATAACTCAAACA [CACACA_site6611]”, the “gcPBM binding intensity (ln)” value rises from 8.85 to 9.27.

First: AATTGTTCGATATATGCACACAGTTTTGTTATTTTT [CACACA_site1615]
Second: TATATAACTTTATTTTTCTTTACTTATTTTATTTTA [GTGCAC_negctrl_site66]
The “gcPBM binding intensity (ln)” value of the first is higher: 9.7 for the first, 9.32 for the second.

Going from “CTAGCAAATACATACACACACACACGGATACCTATA [CACACA_site7609]” to “AAAGAAAAAAAAAAAAGTACATAAATATAAAAAGAA [XGTACX_site6753]”, the “gcPBM binding intensity (ln)” value falls from 10.2 to 9.37.

Going from “TTTTTTAAAATATATATAATGAATTTTTTTTTTTTT [CACACA_negctrl_site1577]” to “ATATATATATATATATGTACATATTATTAATAATAT [XGTACX_site6667]”, the “gcPBM binding intensity (ln)” value rises from 8.73 to 9.21.

Going from “TATTTCACAACTTGTCGTACATTAATTGTATTATTT [XGTACX_site997]” to “TATATAACTGTCTTCACACACACATATAAATAAATA [CACACA_site7317]”, the “gcPBM binding intensity (ln)” value rises from 9.51 to 9.77.

With “ATTATTATTAATAGTACACACTATGGCATTTCAATA [CACACA_site5388]” the “gcPBM binding intensity (ln)” value was 9.39.
